Each structure is given as a SMILES string. About 550 (1.1%) of roughly 48,000 compounds were called active. Not shown: some 4% with an inconclusive outcome. Rule as the data show it: active = potency below about 15 µM; inconclusive = mostly about 16 µM to 33 µM; inactive = weaker than that. This is one part of the list. Bounds are passed on as bounds.
Potency is read from the fitted curve at half-maximal effect.

The test addresses Lysosomal acid glucosylceramidase (Homo sapiens) (UniProt P04062). In words: Glucocerebrosidase.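 Also: the screen sought inhibitors.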 Particulars: purified enzyme, resorufin glucoside fluorescence (screen aimed at inhibitors), 20 min; series mostly up to 77 µM. In short, it runs like this: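 Wild-type enzyme at 0.2 nM final in 50mM citric acid/KH2PO4, 10mM sodium taurocholate, 0.01% tween-20, pH 5.9, with resorufin beta-D-glucopyranoside at 30 uM final. Compounds titrated, 20 min at RT, red fluorescence read; AC50 from titration.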
UniProt P04062, sequence (P04062 whole entry, looked up): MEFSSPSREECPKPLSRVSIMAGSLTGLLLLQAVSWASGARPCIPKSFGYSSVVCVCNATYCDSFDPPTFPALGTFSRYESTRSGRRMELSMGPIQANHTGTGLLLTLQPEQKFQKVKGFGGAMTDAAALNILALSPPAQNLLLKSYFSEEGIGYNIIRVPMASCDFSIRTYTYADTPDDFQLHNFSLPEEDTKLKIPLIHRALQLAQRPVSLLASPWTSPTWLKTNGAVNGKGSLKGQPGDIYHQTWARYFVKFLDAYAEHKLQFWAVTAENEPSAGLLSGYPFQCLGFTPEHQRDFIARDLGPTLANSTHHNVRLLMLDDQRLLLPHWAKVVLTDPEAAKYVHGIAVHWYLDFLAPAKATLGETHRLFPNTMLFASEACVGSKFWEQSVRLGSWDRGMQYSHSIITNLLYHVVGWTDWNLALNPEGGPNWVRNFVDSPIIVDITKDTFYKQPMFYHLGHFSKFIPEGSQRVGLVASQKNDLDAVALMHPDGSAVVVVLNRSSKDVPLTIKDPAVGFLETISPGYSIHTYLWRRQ
`COc1ccc(C(=O)NC2=C(C#N)CCC2)cc1OC`: the Potency is inactive: > 76.9 µM.

On to `O=C(Nc1nccs1)c1ccc2nccnc2c1`, for which the Potency is inactive: > 76.9 µM.

With `CCOc1ccccc1-n1c(SCC(=O)NC(C)(C)C)nnc1-c1ccoc1C`, the Potency is inactive: > 76.9 µM.

For the compound `Cc1ccc(S(=O)(=O)Cn2nnnc2C(c2ccc(F)cc2)N2CCC(C(N)=O)CC2)cc1` (centres undefined), the Potency was inactive: > 76.9 µM.

As for `O=C(CCN1C(=O)c2ccccc2C1=O)Nn1cnnc1`, the Potency was inactive: > 76.9 µM.

Turning to `CCOCCCNC(=O)c1c(-c2ccccc2)noc1C`, the Potency is inactive: > 76.9 µM.

Regarding `O=C(CC(O)(c1ccccc1)C(F)(F)C(F)F)c1cccs1` (centres undefined), the Potency is inactive: > 76.9 µM.

Turning to `CN(c1ccc(C(=O)NCCSCc2ccco2)cc1)S(C)(=O)=O`, the Potency result is “inactive”.

As to `COc1ccc(NC(=O)c2ccco2)cc1NC(=O)c1cccnc1`, the Potency is inactive: > 76.9 µM.

For `CCCCNC(=O)c1ccc2c(c1)ncn2C1CCCCC1`, the Potency was inactive: > 76.9 µM.

`CCOc1cc(S(=O)(=O)n2cc(-c3ccc(F)cc3)c(N)n2)cc(OCC)c1OCC`: the Potency is inactive: > 76.9 µM.

On to `Cc1cc(=O)oc2ccc(OCC(=O)N(Cc3ccc(F)cc3)Cc3ccco3)cc12`, for which the Potency was inactive: > 76.9 µM.

As for `CCOC(=O)c1[nH]c(C)c(C(=O)NC(C)(C)C)c1C`, the Potency is inactive: > 76.9 µM.

Regarding `Cc1csc(NC(=O)CSc2nnc(C)n2Cc2ccco2)n1`, the Potency was inactive: > 76.9 µM.

For `CCN(CC)CC(=O)c1c[nH]c2ccccc12`, the Potency is inactive: > 76.9 µM.

Take `C/C(O)=C(\C#N)c1nnc2n1CCCCC2`: the Potency was inactive: > 76.9 µM.

Take `CC(C)(C)NC(=O)Cn1cc(C#N)c2cc(Br)ccc21`: the Potency is inactive: > 76.9 µM.

Consider `COc1ccc(C(=O)CSc2nn3c(=O)c(C(C)(C)C)nnc3s2)cc1`, for which the Potency is inactive: > 76.9 µM.

With `O=C(NCCC1=CCCCC1)N[C@@H](Cc1ccccc1)C(=O)O`, the Potency is inactive: > 76.9 µM.

With `O=C1Nc2ccc(S(=O)(=O)NCCC3=CCCCC3)c3cccc1c23`, the Potency was inactive: > 76.9 µM.

As to `Cc1nn(-c2ccccc2)c2c1C1(C(=O)N(C)c3ccccc31)C(C#N)=C(N)O2` (centres undefined), the Potency is inactive: > 76.9 µM.

Turning to `CCOC(=O)Nc1cc(C(=O)OC)cc(C(=O)OC)c1`, the Potency is inactive: > 76.9 µM.

In the case of `CCN1CCN(c2ccc(NC(=O)c3cccnc3)cc2Cl)CC1`, the Potency is active: 6.35 µM.

As to `CCn1c(SCC(=O)NCCc2ccccc2)nnc1-c1cccs1`, the Potency is inactive: > 76.9 µM.

Take `CCOC(=O)N1CCN(c2nc(-c3ccco3)cc(C(F)(F)F)n2)CC1`: the Potency entry was “inactive”.

`NC(=O)c1ccc2c(c1)OCCO2`: the Potency was inactive: > 76.9 µM.

With `Cc1ccccc1N(C(=O)Cn1nnc2ccccc21)C(C(=O)NCc1ccco1)c1ccncc1` (centres undefined), the Potency was inactive: > 76.9 µM.

Consider `S=c1[nH]nc(COc2ccc(Cl)cc2)o1`, for which the Potency was inactive: > 76.9 µM.

In the case of `CCOCCCNC(=O)c1ccc2c(c1)OCO2`, the Potency is inactive: > 76.9 µM.

For the compound `CCCOc1ccc(C(=O)N2CCCc3ccccc32)cc1`, the Potency was inactive: > 76.9 µM.

For `O=C(COC(=O)c1cc[n+]([O-])cc1)Nc1ccc2c(c1)OCCO2`, the Potency was inactive: > 76.9 µM.

Regarding `O=C(NC1CCCC1)C(c1ccsc1)N(Cc1ccco1)C(=O)Cc1cccs1` (centres undefined), the Potency was inactive: > 76.9 µM.

Take `CC(OC(=O)c1nsc(Cl)c1Cl)C(=O)NCc1cccs1` (centres undefined): the Potency is inactive: > 76.9 µM.

For the compound `Cn1c(Cc2ccc3c(c2)OCO3)nnc1SCC(=O)N1CCc2ccccc2C1`, the Potency was inactive: > 76.9 µM.

With `O=C(CN1C(=O)c2ccccc2S1(=O)=O)Nc1ccc(S(=O)(=O)N2CCCCC2)cc1`, the Potency is inactive: > 76.9 µM.

As for `CCn1c(CC(=O)Nc2cccc(OC)c2)nnc1SCC(=O)N1CCN(c2ccccc2)CC1`, the Potency is inactive: > 76.9 µM.

For `COc1ccc(N2CC(O)=C(c3nc(C)cs3)C2=N)cc1`, the Potency was inactive: > 76.9 µM.

With `CCCCOC(=O)N1CCOCCOCCN(C(=O)OCCCC)CCOCCOCC1`, the Potency is inactive: > 76.9 µM.

`NCCCNC(=O)c1cc2ccccc2[nH]1`: the Potency was inactive: > 76.9 µM.

Consider `CCOC(=O)N1CCC(NCCNC(=O)c2ccc(Cl)cc2)CC1`, for which the Potency is inactive: > 76.9 µM.

Turning to `CCOC(=O)N1CCN(S(=O)(=O)c2ccc3c(c2)oc(=O)n3C)CC1`, the Potency was inactive: > 76.9 µM.

Take `CCSc1nnc(NC(=O)c2ccc3c(c2)OCO3)s1`: the Potency is inactive: > 76.9 µM.

Take `CC(C)(C)NC(=O)CSc1nnc(CN2CCCCCC2=O)n1-c1ccccn1`: the Potency was inactive: > 76.9 µM.

`Cc1ccc(-n2ncc3c2ncn2nc(-c4ccco4)nc32)c(C)c1`: the Potency is inactive: > 76.9 µM.

As for `O=C(NCCCN1CCN(CCCNC(=O)c2ccc3c(c2)OCO3)CC1)c1ccc2c(c1)OCO2`, the Potency was inactive: > 76.9 µM.

With `Cc1ccc(CCNC(=O)CN2CCN(Cc3ccccc3F)C2=O)cc1`, the Potency is inactive: > 76.9 µM.

Regarding `O=C(/C=N/O)NCC1CCNCC1`, the Potency was inactive: > 76.9 µM.

As for `Cc1ccc(S(=O)(=O)NC(=O)Nc2ccc(Cl)cn2)cc1`, the Potency was inactive: > 76.9 µM.

In the case of `COc1cccc(C(=O)Nc2ccc(C)cc2)c1`, the Potency is inactive: > 76.9 µM.

`Cc1nc(=O)c(-c2ccccc2)c(C)n1-c1ccccc1C(=O)O`: the Potency is inactive: > 76.9 µM.

`Cc1cc(C)n2cc(CSC3=NCCS3)nc2n1`: the Potency was inactive: > 76.9 µM.

For `O=C(Nc1ccc(Cl)cc1)N(Cc1nnc2n1CCCCC2)c1ccccc1`, the Potency was inactive: > 76.9 µM.

As to `CCC(=O)N1c2ccc(S(=O)(=O)CCC(=O)NCc3ccc4c(c3)OCO4)cc2CC1C` (centres undefined), the Potency is inactive: > 76.9 µM.

With `O=C(CCS(=O)(=O)Cc1ccccc1)NCC1CCCO1` (centres undefined), the Potency was inactive: > 76.9 µM.

For `O=C(Cc1ccccc1)Nc1ccc2oc(-c3cccnc3)nc2c1`, the Potency was inactive: > 76.9 µM.

Consider `Cc1nc2ncnn2c(Nc2ccc3c(c2)OCCO3)c1C`, for which the Potency is inactive: > 76.9 µM.

Turning to `COc1ccccc1C(c1nnnn1C(C)(C)C)N1CCN(C(=O)c2ccco2)CC1` (centres undefined), the Potency is inactive: > 76.9 µM.

In the case of `COc1ccc(-c2cc(C(F)(F)F)nc(N3CCN(c4ccccc4)CC3)n2)cc1OC`, the Potency was inactive: > 76.9 µM.

With `CN(Cc1nc(-c2cccnc2)no1)S(=O)(=O)c1ccccc1`, the Potency is inactive: > 76.9 µM.

Values taken from PubChem BioAssay AID360 (National Center for Advancing Translational Sciences (NCATS), 2006).
